Compound in the assay: N#CC[C@H](C1CCCC1)n1cc(-c2ncnc3[nH]ccc23)cn1 [Ruxolitinib]
In words: Viability of human cancer cell lines after 72 h of drug (GDSC screen). Here is the method:
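Human cancer cell lines in 384-well plates, medium with 10% serum, drug for 72 h over a 256-fold dose range (nine 2-fold or five 4-fold steps up to the top dose). Adherent lines were fixed and stained with the nucleic acid dye Syto60, suspension lines read with resazurin; signal relative to control wells, capped at 0 and 100%. One two-parameter sigmoid per drug and line, fitted in a mixed model over all curves with the slope shared within a line.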

A lower IC50 marks a more sensitive line; a fit beyond the top or the lowest dose is shown as a bound at that dose. AUC, from the same fit, is the share of area under the viability curve across the 256-fold dose range; values near 1 show little effect. Where only a bound is given, the exact number is not on record here.

For the cell line “NCI-H1666 (lung adenocarcinoma, semi-adherent, top dose 5.24 µM)”, the AUC turned out to be 0.986 and the IC50 was above 5.24 µM.
The corresponding values for “T84 (large intestine, adherent, top dose 5.24 µM)” are 0.989 and above 5.24 µM.
As for “8-MG-BA (glioma, adherent, top dose 5.24 µM)”, the AUC was 0.987 and the IC50 was above 5.24 µM.
Turning to “MDA-MB-330 (breast, adherent, top dose 5.24 µM)”, the AUC stood at 0.984 and the IC50 was above 5.24 µM.
In the case of “HCC1954 (breast, adherent, top dose 5.24 µM)”, the AUC worked out at 0.983 and the IC50 was above 5.24 µM.
For the cell line “KARPAS-620 (haematopoietic neoplasm, suspension, top dose 5.24 µM)”, the AUC was determined as 0.977 and the 50% inhibitory concentration (IC50) was above 5.24 µM.
On to “NCI-H647 (non-small cell lung carcinoma, adherent, top dose 5.24 µM)”, for which the AUC is 0.972 and the half-maximal inhibitory concentration (IC50) was above 5.24 µM.
The corresponding values for “NCI-H2171 (small cell lung carcinoma, suspension, top dose 5.24 µM)” are 0.987 and above 5.24 µM.
With “OVCA433 (ovary, adherent, top dose 5.24 µM)”, the AUC was 0.984 and the IC50 is above 5.24 µM.
The corresponding values for “NCI-H2085 (lung adenocarcinoma, adherent, top dose 5.24 µM)” are 0.983 and above 5.24 µM.
“ST486 (Burkitt lymphoma, suspension, top dose 5.24 µM)”: the AUC came out at 0.985 and the IC50 is above 5.24 µM.
Regarding “PANC-02-03 (pancreas, adherent, top dose 5.24 µM)”, the AUC turned out to be 0.983 and the half-maximal inhibitory concentration (IC50) was above 5.24 µM.
The matching figures for “DMS-114 (small cell lung carcinoma, adherent, top dose 5.24 µM)”: 0.984 and above 5.24 µM.
In the case of “OVCA420 (ovary, adherent, top dose 5.24 µM)”, the AUC is 0.981 and the IC50 is above 5.24 µM.
As to “T-24 (bladder, adherent, top dose 5.24 µM)”, the AUC was 0.988 and the IC50 is above 5.24 µM.
The corresponding values for “SF539 (glioma, adherent, top dose 5.24 µM)” are 0.99 and above 5.24 µM.
With “SU-DHL-10 (B-cell lymphoma, suspension, top dose 5.24 µM)”, the AUC worked out at 0.998 and the half-maximal inhibitory concentration (IC50) was above 5.24 µM.
Turning to “NCI-H2347 (lung adenocarcinoma, adherent, top dose 5.24 µM)”, the AUC came to 0.977 and the half-maximal inhibitory concentration (IC50) is above 5.24 µM.
For the cell line “NCI-H1573 (lung adenocarcinoma, adherent, top dose 5.24 µM)”, the AUC is 0.991 and the IC50 was above 5.24 µM.
Turning to “JHH-6 (liver, adherent, top dose 5.24 µM)”, the AUC came out at 0.987 and the concentration for half-maximal inhibition (IC50) was above 5.24 µM.
On to “RT-112 (bladder, adherent, top dose 5.24 µM)”, for which the AUC came to 0.984 and the IC50 was above 5.24 µM.
Take “RCC10RGB (kidney, adherent, top dose 1.024 µM)”: the AUC is 0.972 and the IC50 was above 1.02 µM.
“M059J (glioma, adherent, top dose 5.24 µM)”: the AUC was 0.984 and the IC50 is above 5.24 µM.
As to “FTC-133 (thyroid, adherent, top dose 5.24 µM)”, the AUC worked out at 0.986 and the concentration for half-maximal inhibition (IC50) was above 5.24 µM.
For “JM1 (B-cell lymphoma, suspension, top dose 5.24 µM)”, the AUC turned out to be 0.981 and the half-maximal inhibitory concentration (IC50) was above 5.24 µM.
For the cell line “SUP-T1 (T-cell lymphoblastic leukaemia, suspension, top dose 5.24 µM)”, the AUC was found to be 0.983 and the half-inhibitory concentration (IC50) is above 5.24 µM.

What is called IC50 is the point on the concentration scale where inhibition reaches its midpoint.

(Values after the supplement of paper PMC4967469.)
